This experiment addresses glucagon receptor. The experiment is described as follows: cell-based or functional assay.

Experimental findings from patent publication US20120196804A1 (INDIANA UNIVERSITY RESEARCH AND TECHNOLOGY, published 2012) are described below.

B1: Oxyntomodulin C24 PEG 20K (peptide)
peptide: not shown
modifications: PEG 20K on Cys 24
For B1, the “cAMP Induction, EC50 (luciferase reporter, HEK293)” value is 0.97 nM.
